Measurements as given in paper PMC4336329 (PLoS ONE, 2015).
Screen size: about 310,000 compounds; about 2,200 (0.71%) showed an effect of 50% or more. Effects have a minus sign here. Some of the results follow.

Molecular target: human ether-à-go-go-related gene (hERG) potassium channel (human, UniProt Q12809)
Assay: primary screen, population patch clamp on CHO cells stably expressing hERG

Sequence of human ether-à-go-go-related gene (hERG) potassium channel (Q12809 whole entry, looked up): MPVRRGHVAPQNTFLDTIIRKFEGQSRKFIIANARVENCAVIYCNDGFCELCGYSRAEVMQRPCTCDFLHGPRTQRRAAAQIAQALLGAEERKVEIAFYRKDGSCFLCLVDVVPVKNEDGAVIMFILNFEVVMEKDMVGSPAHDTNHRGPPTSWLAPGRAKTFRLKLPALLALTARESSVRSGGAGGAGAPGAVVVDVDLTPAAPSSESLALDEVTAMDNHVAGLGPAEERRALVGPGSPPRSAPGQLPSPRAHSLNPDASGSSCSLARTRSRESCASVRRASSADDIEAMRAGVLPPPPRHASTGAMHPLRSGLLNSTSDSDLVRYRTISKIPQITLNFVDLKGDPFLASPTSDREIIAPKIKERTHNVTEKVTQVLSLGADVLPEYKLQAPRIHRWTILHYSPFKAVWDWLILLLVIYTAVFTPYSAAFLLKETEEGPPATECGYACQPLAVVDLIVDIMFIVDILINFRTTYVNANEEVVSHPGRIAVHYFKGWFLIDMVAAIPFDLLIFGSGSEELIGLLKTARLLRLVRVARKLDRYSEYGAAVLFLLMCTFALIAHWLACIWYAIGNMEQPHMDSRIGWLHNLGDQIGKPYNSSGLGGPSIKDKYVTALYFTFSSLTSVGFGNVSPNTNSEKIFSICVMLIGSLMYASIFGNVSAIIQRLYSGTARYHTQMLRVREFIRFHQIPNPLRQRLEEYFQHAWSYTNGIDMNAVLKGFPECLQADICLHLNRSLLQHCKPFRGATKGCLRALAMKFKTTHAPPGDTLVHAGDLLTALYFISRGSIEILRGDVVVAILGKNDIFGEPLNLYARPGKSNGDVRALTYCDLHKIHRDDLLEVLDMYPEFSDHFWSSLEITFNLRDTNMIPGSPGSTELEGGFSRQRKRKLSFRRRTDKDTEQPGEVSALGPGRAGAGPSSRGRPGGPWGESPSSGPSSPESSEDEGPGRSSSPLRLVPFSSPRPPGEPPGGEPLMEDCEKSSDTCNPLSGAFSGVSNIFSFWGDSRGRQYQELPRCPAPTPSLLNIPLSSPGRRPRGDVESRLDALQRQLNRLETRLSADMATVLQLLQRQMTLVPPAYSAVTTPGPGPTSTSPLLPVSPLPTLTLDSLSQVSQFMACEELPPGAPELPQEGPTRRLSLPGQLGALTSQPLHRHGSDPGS

| SMILES | hERG current change (%, negative = inhibition) at 1uM |
| --- | --- |
| Cc1cc(NC(=O)C2CC=CCC2C(=O)O)no1 (stereo not shown) | 1.58% |
| CC(Nc1cccc(F)c1)C(=O)Nc1ccc(S(N)(=O)=O)cc1 (stereo not shown) | 10.5% |
| Cc1ccc(OCC(=O)O/N=C(\N)c2cccnc2)cc1 | 10.6% |
| O=C(NCCNc1ccc([N+](=O)[O-])cc1C(F)(F)F)c1ccccc1 | -2.76% |
| CN(Cc1ccc(F)cc1)C(=O)C(Cc1ccccc1)NC(=O)c1ccccc1 (stereo not shown) | 15.9% |
| CC(NC(=O)CN(c1ccc(Cl)cc1)S(C)(=O)=O)c1ccccc1 (stereo not shown) | 12.2% |
| COc1ccc2c(C)cc(SCC(=O)Nc3ncc(Cl)cc3Cl)nc2c1 | -1.19% |
| O=C(CN1C(=O)CSc2ccc(C(F)(F)F)cc21)Nc1ccccc1 | 12% |
| CC(=O)N1CCCN(C(=O)c2cc(COc3c(F)cccc3F)on2)CC1 | 6.37% |
| Cc1cccc(NC(=O)c2sc3ncn(CC(=O)N4CCN(c5ccccn5)CC4)c(=O)c3c2C)c1 | -13.3% |
| O=C(Nn1cnc2ccccc2c1=O)C1CCCCC1 | 7.64% |
| CN(C(=O)COC(=O)/C=C/c1cn(-c2ccccc2)nc1-c1ccc2c(c1)OCCO2)C1CCS(=O)(=O)C1 (stereo not shown) | 3.84% |
| N#Cc1c(N)nc2c(c1N)CC(=O)N2c1ccccc1-c1ccccc1 | 2.8% |
| COc1cccc(OCCCN2CCCCC2)c1 | -8.59% |
| O=C(Nc1ccccc1Cl)c1ccn[nH]1 | 4.75% |
| C[C@@H]1O[C@@H](O[C@H]2C[C@@H](O)[C@]3(CO)[C@H]4[C@H](O)C[C@]5(C)[C@@H](C6=CC(=O)OC6)CC[C@]5(O)[C@@H]4CC[C@]3(O)C2)[C@H](O)[C@H](O)[C@H]1O.O | 21.1% |
| O=C(NCCc1ccc(C(F)(F)F)cc1)C1CC(=O)N(Cc2ccccc2)C1 (stereo not shown) | 0.784% |
| CC(=O)N1N=C(c2cccs2)CC1c1ccc(C)o1 (stereo not shown) | 13.4% |
| CC1CCCN(CCS(=O)(=O)c2ccccc2)C1 (stereo not shown) | 5.66% |
| CC(C)NC(=O)NC(=O)COC(=O)c1cccc(S(=O)(=O)N2CCCCC2)c1 | 6.61% |
| COc1ccc(/C=C(/NC(=O)c2ccccc2)C(=O)N2CCCC2)cc1OC | 14.3% |
| COc1ccc(C(C)C)cc1S(=O)(=O)n1ccnc1C | 12.6% |
| COCc1c(Br)c(C)nc(OCC(=O)N/N=C/c2cc(C)n(-c3ccc([N+](=O)[O-])cc3)c2C)c1C#N | 3.11% |
| COC(=O)c1ccc2c(=O)n(-c3ccccc3)c(SCN3C(=O)c4ccccc4C3=O)nc2c1 | 13.4% |
| Cc1ccc(C(=O)C(C)OC(=O)Cn2cnc3c2c(=O)n(C)c(=O)n3C)cc1 (stereo not shown) | 11.8% |
| COc1cc(CC(=O)OCC(=O)Nc2ccc3c(c2)OCCO3)cc(OC)c1OC | 11.4% |

| SMILES | hERG current change (%, negative = inhibition) at 1uM |
| --- | --- |
| OCC1(CCOc2ccccc2)CCN(Cc2cn[nH]c2-c2ccc(F)cc2)CC1 | -46.3% |
| Cc1cccc(COc2ccccc2C(=O)N(C)CC(=O)Nc2cccc(F)c2)c1 | 5.16% |
| COCCCNC(=O)Cn1cnc2sc(C)c(S(=O)(=O)N3CCN(c4ncccn4)CC3)c2c1=O | 10.2% |
| COc1ccccc1NC(=O)COC(=O)C1CC1 | 6.59% |
| Cc1cc(C)cc(NC(=S)N2CCN(C(=O)c3ccco3)CC2)c1 | 6.33% |
| Cc1c(NS(=O)(=O)c2ccc3c(c2)c(=O)n(C)c(=O)n3C)c(=O)n(-c2ccccc2)n1C | -3.63% |
| Cc1ccc(C)c(N2CC(C(=O)OCC(=O)Nc3cc(C)on3)CC2=O)c1 (stereo not shown) | 11.6% |
| CCOc1cccc(-c2nnc(SCC(=O)Nc3cc(OC)cc(OC)c3)n2N)c1 | 6.27% |
| COc1ccc([C@H]2CC(=O)C=C(c3cc(C)ccc3OC)C2)cc1 | 12.5% |
| COC(=O)c1ccc(C(NC(=O)OCc2ccccc2)/C(F)=C/[C@@H](C)C(=O)NCc2ccc(-c3ccccc3)cc2)cc1 (stereo partly shown) | 12.6% |
| O=C(NCC1COc2ccccc2O1)C1CCCN(S(=O)(=O)c2cccc3cccnc23)C1 (stereo not shown) | 4.12% |
| NC(=O)c1cc(NC(=O)CCc2nc3ccccc3s2)cc(C(N)=O)c1 | 15.5% |
| COc1ccc(-c2ccc(=O)n(Cc3cccc(Cl)c3)n2)cc1 | 12.4% |
| Cc1ncccc1C(=O)N1CCCC(CCC(=O)N2CCN(c3ccccn3)CC2)C1 (stereo not shown) | 12.4% |
| CSc1nsc(SCC(=O)Nc2ccc3c(c2)OCCO3)n1 | 0.801% |
| Cc1ccc(NC(=O)C2CCCN2C(=O)c2cccs2)cc1C (stereo not shown) | 8.23% |
| Cc1ccccc1NC(=O)CSc1nc(N)c(C#N)c(-c2cccs2)c1C#N | 4.72% |
| CC(C)c1ccc(NC2CCCN(C(=O)c3cccc(N4CCNC4=O)c3)C2)cc1 (stereo not shown) | 15.8% |
| CCOC(=O)c1nnn(CC(=O)NC(=O)Nc2ccccc2)c1C(=O)OCC | 7.08% |
| COc1ccc(-c2cc3onc(-c4c(Cl)cccc4Cl)c3c(=O)n2C)cc1 | 3.35% |
| COc1ccc(C(=O)Nc2ccccc2-c2nnn(CC(=O)NCc3ccco3)n2)cc1 | 13.4% |
| CCCCn1nnc(NC(=O)c2cc3ccccc3o2)n1 | 6.54% |
| Cc1cc(C)c2nc(-c3ccccn3)cc(C(=O)Nc3cc(C)on3)c2c1 | 1.53% |
| C=CCN=C1N[C@@H](c2ccccc2)C(C(=O)OC)=C(C)N1CC | 3.57% |
| C#CCNC(=O)C1=C[C@H](c2ccccc2)[C@@H](CCCO)[C@H](OCC)O1 | 15.7% |
| Cn1c(CNC(=O)c2ccco2)nnc1SCC(=O)Nc1c(F)cc(F)cc1Br | 15.1% |
